We go through 66 cell lines from the supplement of paper PMC4967469.

IC50 is the fitted dose that halves viability relative to control wells, and lower means more sensitive; a limit (>, <) means that the fit lies beyond the doses tested. The AUC spans the tested range (256-fold, ending at the top dose) of the same fit: 1 means no effect, lower means more sensitive. Any top dose called inferred comes from the curve model; the source does not state it.

Compound in the test: Cn1cc(C2=C(c3cn(C4CCN(Cc5ccccn5)CC4)c4ccccc34)C(=O)NC2=O)c2ccccc21 [LY317615]
In words: Viability of human cancer cell lines after 72 h of drug (GDSC screen). As to conditions: top dose inferred. Here is the method: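 Human cancer cell lines in 384-well plates, medium with 10% serum, drug for 72 h over a 256-fold dose range (nine 2-fold or five 4-fold steps up to the top dose). Adherent lines were fixed and stained with the nucleic acid dye Syto60, suspension lines read with resazurin; signal relative to control wells, capped at 0 and 100%. One two-parameter sigmoid per drug and line, fitted in a mixed model over all curves with the slope shared within a line.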
One may read the IC50 as the point on the concentration scale where inhibition reaches its midpoint. Turning to “SNU-C2B (large intestine, adherent, top dose 20 µM)”, the AUC was 0.77 and the 50% inhibitory concentration (IC50) was 10 µM.
Turning to “SW900 (lung squamous cell carcinoma, adherent, top dose 20 µM)”, the AUC came out at 0.535 and the IC50 was 1.59 µM.
In the same order, the values of “HuO-3N1 (osteosarcoma, adherent, top dose 20 µM)” are 0.842 and over 20 µM.
In the case of “MKN1 (stomach, adherent, top dose 20 µM)”, the AUC came out at 0.804 and the IC50 turned out to be 10.7 µM.
In the same order, the values of “SBC-3 (small cell lung carcinoma, adherent, top dose 20 µM)” are 0.882 and 17.7 µM.
Take “CAL-72 (osteosarcoma, adherent, top dose 20 µM)”: the AUC is 0.984 and the IC50 was over 20 µM.
With “DU-4475 (breast, suspension, top dose 20 µM)”, the AUC is 0.725 and the IC50 worked out at 4.69 µM.
As to “VMRC-RCW (kidney, adherent, top dose 20 µM)”, the AUC came to 0.886 and the IC50 was determined as 19.3 µM.
Consider “RERF-LC-KJ (lung adenocarcinoma, adherent, top dose 20 µM)”, for which the AUC was determined as 0.75 and the IC50 is 6.72 µM.
For “EW-18 (Ewing sarcoma, suspension, top dose 20 µM)” the same measures were 0.856 and 17.8 µM.
For “MZ7-mel (melanoma, adherent, top dose 20 µM)” the same measures were 0.739 and 6.22 µM.
In the same order, the values of “IST-MES1 (mesothelioma, adherent, top dose 20 µM)” are 0.908 and over 20 µM.
As to “EB-3 (Burkitt lymphoma, suspension, top dose 20 µM)”, the AUC came out at 0.865 and the IC50 was over 20 µM.
In the same order, the values of “ATN-1 (T-cell lymphoblastic leukaemia, suspension, top dose 20 µM)” are 0.474 and 1.07 µM.
For “PE/CA-PJ15 (head and neck, adherent, top dose 20 µM)”, the AUC came to 0.929 and the IC50 is over 20 µM.
Consider “SNU-81 (large intestine, adherent, top dose 20 µM)”, for which the AUC was found to be 0.91 and the IC50 was over 20 µM.
For “EMC-BAC-1 (lung adenocarcinoma, adherent, top dose 20 µM)” the same measures were 0.846 and 17.8 µM.
Regarding “NCI-H1581 (large cell lung carcinoma, semi-adherent, top dose 20 µM)”, the AUC is 0.929 and the IC50 was over 20 µM.
For the cell line “NCI-H1155 (large cell lung carcinoma, suspension, top dose 20 µM)”, the AUC turned out to be 0.928 and the IC50 is over 20 µM.
In the same order, the values of “NCI-H1568 (lung adenocarcinoma, adherent, top dose 20 µM)” are 0.98 and over 20 µM.
Turning to “LCLC-97TM1 (large cell lung carcinoma, adherent, top dose 20 µM)”, the AUC is 0.851 and the IC50 is 17.6 µM.
Regarding “COLO-678 (large intestine, semi-adherent, top dose 20 µM)”, the AUC was 0.819 and the IC50 was 16 µM.
Regarding “NCI-H1436 (small cell lung carcinoma, suspension, top dose 20 µM)”, the AUC is 0.91 and the IC50 is over 20 µM.
Turning to “UMC-11 (lung carcinoid, adherent, top dose 20 µM)”, the AUC stood at 0.896 and the half-maximal inhibitory concentration (IC50) is over 20 µM.
Consider “BT-474 (breast, adherent, top dose 20 µM)”, for which the AUC came to 0.725 and the IC50 came out at 5.92 µM.
In the same order, the values of “NCI-H1781 (lung adenocarcinoma, adherent, top dose 20 µM)” are 0.933 and over 20 µM.
In the same order, the values of “no-10 (glioma, adherent, top dose 20 µM)” are 0.891 and over 20 µM.
Consider “HARA (lung squamous cell carcinoma, adherent, top dose 20 µM)”, for which the AUC was determined as 0.687 and the IC50 was determined as 4.59 µM.
Turning to “PFSK-1 (medulloblastoma, adherent, top dose 20 µM)”, the AUC was 0.984 and the IC50 is over 20 µM.
Consider “MZ1-PC (pancreas, adherent, top dose 20 µM)”, for which the AUC was 0.649 and the IC50 came out at 3.59 µM.
In the same order, the values of “NCI-H2009 (lung adenocarcinoma, adherent, top dose 20 µM)” are 0.98 and over 20 µM.
As to “CCF-STTG1 (glioma, adherent, top dose 20 µM)”, the AUC is 0.979 and the IC50 is over 20 µM.
“H2869 (mesothelioma, adherent, top dose 20 µM)”: the AUC was found to be 0.734 and the IC50 worked out at 6.92 µM.
Regarding “MDA-MB-436 (breast, adherent, top dose 20 µM)”, the AUC came to 0.957 and the IC50 was over 20 µM.
Consider “KP-1N (pancreas, adherent, top dose 10.24 µM)”, for which the AUC turned out to be 0.826 and the IC50 came to 6.58 µM.
For the cell line “A101D (melanoma, adherent, top dose 20 µM)”, the AUC is 0.907 and the IC50 is over 20 µM.
Take “MHH-ES-1 (Ewing sarcoma, adherent, top dose 20 µM)”: the AUC was determined as 0.899 and the IC50 was over 20 µM.
Turning to JHH-4 (liver, adherent, top dose 20 µM), the AUC was found to be 0.935 and the IC50 was over 20 µM.
Consider “NCI-SNU-16 (stomach, suspension, top dose 20 µM)”, for which the AUC came out at 0.908 and the IC50 was over 20 µM.
Turning to “NCI-H2228 (lung adenocarcinoma, adherent, top dose 20 µM)”, the AUC was 0.675 and the IC50 is 4.98 µM.
As for OV-56 (ovary, adherent, top dose 20 µM), the AUC was 0.862 and the IC50 came out at 16 µM.
“BT-20 (breast, adherent, top dose 20 µM)”: the AUC came out at 0.809 and the IC50 came out at 13.7 µM.
In the same order, the values of “VAL (B-cell lymphoma, suspension, top dose 20 µM)” are 0.842 and 14.1 µM.
Take “NY (osteosarcoma, adherent, top dose 20 µM)”: the AUC was 0.988 and the IC50 was over 20 µM.
Take “HD-MY-Z (Hodgkin lymphoma, adherent, top dose 20 µM)”: the AUC was 0.838 and the IC50 worked out at 13.6 µM.
As for “Hs940-T (melanoma, adherent, top dose 20 µM)”, the AUC is 0.799 and the IC50 was 12.1 µM.
As for “GI-ME-N (neuroblastoma, adherent, top dose 20 µM)”, the AUC is 0.854 and the IC50 was over 20 µM.
As to “COLO-680N (oesophagus, adherent, top dose 20 µM)”, the AUC came to 0.798 and the half-inhibitory concentration (IC50) turned out to be 11.6 µM.
For the cell line “SW13 (adrenal gland, adherent, top dose 20 µM)”, the AUC was 0.988 and the IC50 is over 20 µM.
Turning to “JAR (urogenital system, adherent, top dose 20 µM)”, the AUC amounted to 0.844 and the IC50 was 13.8 µM.
For “WSU-DLCL2 (B-cell lymphoma, suspension, top dose 20 µM)” the same measures were 0.931 and over 20 µM.
In the case of “SN12C (kidney, adherent, top dose 20 µM)”, the AUC amounted to 0.98 and the IC50 was over 20 µM.
For “HSC-39 (stomach, suspension, top dose 20 µM)”, the AUC was 0.844 and the IC50 was determined as 11.5 µM.
In the same order, the values of C3A (liver, adherent, top dose 20 µM) are 0.988 and over 20 µM.
As for “ASH-3 (thyroid, adherent, top dose 20 µM)”, the AUC worked out at 0.988 and the IC50 was over 20 µM.
For the cell line “JEG-3 (urogenital system, adherent, top dose 20 µM)”, the AUC was 0.989 and the IC50 was over 20 µM.
As to “D-502MG (glioma, adherent, top dose 20 µM)”, the AUC came out at 0.963 and the IC50 is over 20 µM.
For “NCI-H2110 (non-small cell lung carcinoma, adherent, top dose 20 µM)”, the AUC came out at 0.849 and the IC50 is 15.5 µM.
In the case of “SW1990 (pancreas, adherent, top dose 20 µM)”, the AUC was determined as 0.966 and the IC50 was over 20 µM.
“DMS-53 (small cell lung carcinoma, adherent, top dose 20 µM)”: the AUC stood at 0.986 and the IC50 is over 20 µM.
For the cell line GB-1 (glioma, adherent, top dose 20 µM), the AUC was found to be 0.979 and the IC50 is over 20 µM.
Take “LS-123 (large intestine, adherent, top dose 20 µM)”: the AUC stood at 0.86 and the IC50 is over 20 µM.
In the same order, the values of HLE (liver, adherent, top dose 20 µM) are 0.972 and over 20 µM.
On to “Hs683 (glioma, adherent, top dose 20 µM)”, for which the AUC came out at 0.876 and the IC50 was over 20 µM.
As for “SK-N-FI (neuroblastoma, adherent, top dose 20 µM)”, the AUC is 0.904 and the IC50 was over 20 µM.
In the same order, the values of “CHSA8926 (chondrosarcoma, adherent, top dose 20 µM)” are 0.886 and over 20 µM.
